Laboratory results reported in the supplement of paper PMC11417369.
This is one part of the list.

Test system: PF3D7_0420300 AP2 domain 1 (GST-tagged)
Experiment: gcPBM binding intensity (ln(normalized median fluorescence intensity)); higher = stronger DNA binding
Procedure, shortened: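 Binding intensity is the highest Masliner-normalised natural-log median intensity over replicate spots in either probe orientation. To obtain it, GST-tagged P. falciparum DNA-binding domains made in E. coli were incubated for 1 h on an Agilent 4 × 180k array of primer-extended double-stranded 36-bp intergenic genomic probes plus negative controls. Detection used Alexa488 anti-GST antibody with scanning at 488 nm.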

For “GAAAAAAAAAAAAAAAAACACACGGTACATTCAAAG [CACACA_site303]”, which “gcPBM binding intensity (ln)” value is on record?
Its value is 9.53.

“TTTTTTTTACATGAACGTACATAATATATTTTATAA [XGTACX_site5249]” was tested. Which “gcPBM binding intensity (ln)” value did it give?
The value was 9.05.

How did the “gcPBM binding intensity (ln)” value turn out when “TGGTGTTTTTTTTAATGTACTTATAAAATAATACAT [XGTACX_site6574]” was run?
The value was 9.24.

With “ATGTAAAAATAAAGATGTACATGTATATATATATAT [XGTACX_site5193]” as the sequence, how does the “gcPBM binding intensity (ln)” value read?
The value was 9.43.

For “AATATATATTCATGTGTACACACAAAAAAAAATAAA [CACACA_site8690]”, which “gcPBM binding intensity (ln)” value is on record?
Its value is 9.76.

“CCTATAATTAGGGGTAGTACACAAAAAAAAAAAAAA [XGTACX_site6396]” was tested. Which “gcPBM binding intensity (ln)” value did it give?
Its value is 8.94.

For “TTAAAAAAGAATTGTGCACACACAAAAAATGTTCAT [CACACA_site1102]”, which “gcPBM binding intensity (ln)” value is on record?
The value was 9.41.

For “AATTCCTTATACAATTGTACATAAAAAGAATAAAAA [XGTACX_site1343]”, which “gcPBM binding intensity (ln)” value is on record?
Its value is 9.05.

How did the “gcPBM binding intensity (ln)” value turn out when “ATCAAACAAAAAATAAAAAAATGCGACATGTGTACA [TGCATGCA_negctrl_site164]” was run?
The value was 9.61.

How did the “gcPBM binding intensity (ln)” value turn out when “TATAAAATTTAAATTATACACACTTAAGTAACATCA [CACACA_site531]” was run?
The value was 9.34.

“TTAATATTTTTAATTTGTACATATAATTAAATCTCT [XGTACX_site1736]” was tested. Which “gcPBM binding intensity (ln)” value did it give?
The value was 8.95.

“GAAAATTATGTATATTGTACAAATATTATATTAAAT [XGTACX_site2467]” was tested. Which “gcPBM binding intensity (ln)” value did it give?
The value was 9.19.

For “TTGAATACATATATATGTACATATTCTATGGTTAGA [XGTACX_site4088]”, which “gcPBM binding intensity (ln)” value is on record?
Its value is 9.05.

With “CAAGGACAATTTACAAACATAATATATGTATATATA [TGCATGCA_negctrl_site5]” as the sequence, how does the “gcPBM binding intensity (ln)” value read?
Its value is 9.14.

Which “gcPBM binding intensity (ln)” value does the source give for “CTGAGGAAGCTAATTACACACATGCATATTTTTTTT [CACACA_site2177]” here?
The value was 9.6.

How did the “gcPBM binding intensity (ln)” value turn out when “ATTATCTTCAAGTATGTACACACTATATATAATAAA [CACACA_site2441]” was run?
Its value is 9.35.

For “ATAAATTTACTTGATTGTACATTTCTTAGTTGTATT [XGTACX_site3057]”, which “gcPBM binding intensity (ln)” value is on record?
Its value is 9.46.

Which “gcPBM binding intensity (ln)” value does the source give for “TATACTGATAAAAAAAGTACTAGAGTTTGTAAAAAT [XGTACX_site3934]” here?
Its value is 9.27.

Which “gcPBM binding intensity (ln)” value does the source give for “CACAAGAAAGTTCACACACACACATATATATATATA [CACACA_site6009]” here?
The value was 9.95.

How did the “gcPBM binding intensity (ln)” value turn out when “TTATATGTCAATTTGCGTACATACATAATTACATAT [XGTACX_site1546]” was run?
Its value is 9.24.

How did the “gcPBM binding intensity (ln)” value turn out when “AATTTTAATTTTTTGACACACATATAATATATATAT [CACACA_site3978]” was run?
Its value is 9.37.

“TATGGGTATGTATTCACACATAACAAAAATATCAAA [CACACA_site5059]” was tested. Which “gcPBM binding intensity (ln)” value did it give?
Its value is 9.22.

Which “gcPBM binding intensity (ln)” value does the source give for “ATATATATATATAACACACGCAAAAAAATTAAATAA [CACACA_site1400]” here?
The value was 9.69.

With “TTTTATATATTCAATTGTACATGTATTTTTTTTTTT [XGTACX_site3584]” as the sequence, how does the “gcPBM binding intensity (ln)” value read?
The value was 9.37.

Which “gcPBM binding intensity (ln)” value does the source give for “CAAAGACACAAACACACACACACATACATACATACA [CACACA_site453]” here?
The value was 10.1.

Which “gcPBM binding intensity (ln)” value does the source give for “TTTATTTTTAAAGGCACACACATTTTTATTTTTAAA [CACACA_site2021]” here?
The value was 9.32.

How did the “gcPBM binding intensity (ln)” value turn out when “TTCTTTTTTTTCAGTTGTACTTATAAGAAAGAAAAA [XGTACX_site4028]” was run?
Its value is 8.7.

For “TTTATTTATAGAATTACACACATATATACACAAATG [CACACA_site7338]”, which “gcPBM binding intensity (ln)” value is on record?
The value was 9.56.

“TTATTATAAATAGGTAGTACATTTTGAACAAATATT [XGTACX_site8866]” was tested. Which “gcPBM binding intensity (ln)” value did it give?
The value was 9.21.

With ATATATATAACAAAAGTGCATTAAGGGGATGCTATA as the sequence, how does the “gcPBM binding intensity (ln)” value read?
The value was 9.43.

With “AATATAAATATAGGAAATGTAGTTAAAAGGTGTATG [CACACA_negctrl_site1233]” as the sequence, how does the “gcPBM binding intensity (ln)” value read?
Its value is 9.5.

For “ATACGACAAATATAAAGTACAAGCTTGGTTTTTATA [XGTACX_site8103]”, which “gcPBM binding intensity (ln)” value is on record?
The value was 9.41.

For “AATTATGGGGAAAAGACACACATATATATATATATA [CACACA_site2589]”, which “gcPBM binding intensity (ln)” value is on record?
Its value is 9.2.

“TATGCAAGGAACCACACACACACACGGAAATGTATA [CACACA_site6490]” was tested. Which “gcPBM binding intensity (ln)” value did it give?
Its value is 10.2.

How did the “gcPBM binding intensity (ln)” value turn out when “ATTCTATAGAAACACACACACATGCATGCACCTATA [CACACA_site107]” was run?
Its value is 9.96.

“TTATATATATATGTATGTACTTATAACTTTTATTAG [XGTACX_site3190]” was tested. Which “gcPBM binding intensity (ln)” value did it give?
The value was 9.26.

Which “gcPBM binding intensity (ln)” value does the source give for “ATAAGGTTACAACAAACACACAAAGGAATATACGCA [CACACA_site4090]” here?
The value was 10.

For “AAGAAGAATAGGCGTTGTACGGAATGTAGTAGAGTT [XGTACX_site2430]”, which “gcPBM binding intensity (ln)” value is on record?
Its value is 9.59.

For “TTAATATAAATATGATTTTTGATTCCTATACTATTT [CACACA_negctrl_site752]”, which “gcPBM binding intensity (ln)” value is on record?
The value was 9.19.

How did the “gcPBM binding intensity (ln)” value turn out when “TTGTATTCATATGGTTGTACATATTAAAAGTTCTAA [XGTACX_site7255]” was run?
Its value is 9.05.

“ATAAAATGATGTATCTGTGTATGTTTATTTTGTTTT [XGTACX_negctrl_site367]” was tested. Which “gcPBM binding intensity (ln)” value did it give?
The value was 9.66.

How did the “gcPBM binding intensity (ln)” value turn out when “ATTATATACAAATAAAGTACATAAACAAATTCAGAA [XGTACX_site1187]” was run?
Its value is 9.64.

“TATTTCAAACTGTTCTCACACACGAAATTAGAAATG [CACACA_site611]” was tested. Which “gcPBM binding intensity (ln)” value did it give?
Its value is 9.26.

“TTTTGAATATGGATCTTATATATATTAAATAAATAA [CACACA_negctrl_site344]” was tested. Which “gcPBM binding intensity (ln)” value did it give?
The value was 8.77.

How did the “gcPBM binding intensity (ln)” value turn out when “ATTCCAGAAATATATTAACAAGGAAAATATAAAAAT [CACACA_negctrl_site343]” was run?
The value was 9.28.

For “TTGAGCCTACAAAAGGGTACACATTCAATTTATTTT [XGTACX_site6570]”, which “gcPBM binding intensity (ln)” value is on record?
Its value is 9.12.

With “ATATTTTGTTATGAAACACACACATATATATATATA [CACACA_site9216]” as the sequence, how does the “gcPBM binding intensity (ln)” value read?
The value was 9.64.

For “AAAAAAAAAAGAAATTGTACTTTTTGTTTAATAATT [XGTACX_site4681]”, which “gcPBM binding intensity (ln)” value is on record?
Its value is 8.9.

“TACTAAGAAGTATTTACACACCAACAAGGCGAAAAA [CACACA_site2944]” was tested. Which “gcPBM binding intensity (ln)” value did it give?
The value was 9.45.

How did the “gcPBM binding intensity (ln)” value turn out when “ATATGTATAAAAATCCGTACATAAGTGTGCGTATAT [XGTACX_site4376]” was run?
The value was 9.32.

For “ATGTTTGAGCCTAAGGTGCATATAAAAATATATGTG [GTGCAC_site9690]”, which “gcPBM binding intensity (ln)” value is on record?
Its value is 9.07.

Which “gcPBM binding intensity (ln)” value does the source give for “ATAAATAATATGTAAACACACAAAAAATAAAAATGA [CACACA_site1178]” here?
Its value is 9.72.

With “ATATATATTATATATGCATGCCAAATCTTTATAAAC [TGCATGCA_site1042]” as the sequence, how does the “gcPBM binding intensity (ln)” value read?
The value was 9.18.

With “ACATATATATATATATATATATATATATATAGATAG [CACACA_negctrl_site783]” as the sequence, how does the “gcPBM binding intensity (ln)” value read?
The value was 9.17.

“AAAACTAAATGTTATTCGCACACGGAATTTATTTAA [CACACA_site9221]” was tested. Which “gcPBM binding intensity (ln)” value did it give?
The value was 9.19.

Which “gcPBM binding intensity (ln)” value does the source give for “CTTTTTACTTAATACACACACACACTAAAAAAAAAA [CACACA_site6574]” here?
The value was 9.94.
